Results as given in the supplement of paper PMC11417369.
± gives the standard deviation of the averaged measurements. The list shows a part of the results.

system: PfAP2-EXP AP2 domain (GST-tagged); assay: gcPBM binding intensity (ln(normalized median fluorescence intensity)); higher = stronger DNA binding
Outline: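 Plasmodium falciparum DNA-binding domains carrying a GST tag were expressed in E. coli and applied for 1 h, at about 25 μg on average, to an Agilent 4 × 180k array. The array held primer-extended double-stranded 36-bp intergenic genomic probes together with negative controls, and binding took place in 1× PBS with 1% milk, 0.2 mg/ml BSA, 0.5% salmon testes DNA and 0.03% Triton X-100. An Alexa488 anti-GST antibody detected bound protein, and the array was scanned at 488 nm. Binding intensity is taken as the highest Masliner-normalised natural-log median intensity across replicate spots of either probe orientation.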

Sequence | gcPBM binding intensity (ln)
TCCTTGCATTTTAAAACACACAAAAATTAATTGTTA [CACACA_site7152] | 8.55 ± 0.32
TTTCTAATTATTTCCCTTCAAATATATTAATATCGT [CACACA_negctrl_site429] | 8.6 ± 0.42
TAAAAATGTGGACACACACACATATATATATTTAAT [CACACA_site4941] | 8.67 ± 0.28
ATATATATTATTATATGTACATATAAATATATTAAT [XGTACX_site5270] | 8.43 ± 0.16
TTCATATAATTATATACATGCATAAATTCTAAGTAA [TGCATGCA_site622] | 8.65 ± 0.24
TTCATATATTATTATGCATGTTCATAAATTATCTAA [TGCATGCA_site896] | 8.7 ± 0.26
ATTTTATAAACAAATGAACACACAAACATATATATA [CACACA_site9036] | 8.76 ± 0.52
TACATACATAAACACACACACACATATATATATATA [CACACA_site8953] | 10.1 ± 0.35
ACCCATTCAAATTTCGCACACACATACAAAAAAAAA [CACACA_site3094] | 8.79 ± 0.32
CATTAATGACATGATTGTACATAAGCTTTTTTACAT [XGTACX_site1888] | 9.01 ± 0.45
ATTTGTGTATATTAGAGTACATAAAATTAGAGGAAC [XGTACX_site1654] | 9.11 ± 0.25
ATCAAAAGAAAACACACACACATACATATATATATA [CACACA_site3795] | 9.81 ± 0.28
TATTTAAAAATAAAATGTACATATTATTATGCATTA [XGTACX_site1303] | 8.44 ± 0.18
TTACATATTTATGATTGTACACATTTATAAACAATA [XGTACX_site2190] | 8.37 ± 0.2
TTAATATTGTTATAGCGTACAAATAAACATATTAAA [XGTACX_site8153] | 8.49 ± 0.33
TGATTCTAACTTATGGTGCAACATTATGGACACCGT | 8.84 ± 0.042
AAAAGCTATAAAAATCGGTAATTTATAACAGGAATT [CACACA_negctrl_site469] | 8.57 ± 0.4
AATGTTAAGGAGGGGAGTACATAAAATTCTCTCTCC [XGTACX_site1990] | 8.56 ± 0.35
ATTATGTACTATTATACACACGTTTAATTGTAAATT [CACACA_site4278] | 8.6 ± 0.31

Sequence | gcPBM binding intensity (ln)
ATTATACACGCGCGCACACACAACAAAAAAAAAAAA [CACACA_site7630] | 8.56 ± 0.4
ATAATAATAAAGTGAACACACACATATAATATATAT [CACACA_site9378] | 8.62 ± 0.35
TAAATAAACAAATTAACACACAGAATTTTTTTTTTC [CACACA_site1674] | 8.19 ± 0.35
TGGTAACAGCATAGAAAATGGACAAACGAAATATAA [GTGCAC_negctrl_site537] | 9.05 ± 0.56
TATTATCTCTTATGAACACACATTTTTATTTTCAAA [CACACA_site3353] | 8.55 ± 0.49
ATATCGTATATGAGTGGTACTAATATGTAAAAAAAA [XGTACX_site7830] | 8.59 ± 0.36
TTTATGGGTATGTTTACACACATAAAAAAATATATG [CACACA_site5646] | 8.41 ± 0.34
ATATATATGAAAATATGTACATATATATATATATAA [XGTACX_site7550] | 8.66 ± 0.3
AAAGTTATAATACGTACACACCTTATCTTTTTGGCT [CACACA_site6267] | 8.65 ± 0.41
ATATAAGTATTTTGAATGCACTTTCTTTTTTTTTTT | 8.55 ± 0.27
TTATAAAATAATTAATGTACGTTTATGTGTATCGAA [XGTACX_site6117] | 8.48 ± 0.29
ACTGAAAAAAGAAATACACACATTCTGGATCATATA [CACACA_site3860] | 8.32 ± 0.58
AACGATATCTGTACTACACACATTATGTCATCCTAT [CACACA_site5374] | 9.07 ± 0.45
ATTAACACTGAAAAATGTACATATATAAATATAAGC [XGTACX_site8222] | 8.63 ± 0.5
AATATTAAAAACAAAACACACAAAAAAAAATAAACT [CACACA_site6470] | 8.71 ± 0.54
TAAAATAATACAAAATGTACAAAATTTACAAAATGT [XGTACX_site3541] | 8.29 ± 0.28
AATATAGAACAATGTTGTACATATAATAATCTTATA [XGTACX_site4671] | 8.24 ± 0.3
ATGTAAATTAAACATGGTACACATTATACAAAATTA [XGTACX_site5675] | 8.73 ± 0.42
ATTTTGTTCGAAAGGTGTACATATACAAAAATTATG [XGTACX_site957] | 8.87 ± 0.4

Sequence | gcPBM binding intensity (ln)
TAATAATAAAAATAAACACACATATAGATGTATATA [CACACA_site7360] | 8.25 ± 0.35
ATTGCTTTTCTTTTTGCACACTTATGCATATATATA [CACACA_site2584] | 9.36 ± 0.42
CACTTTTCATATATGACACACAAAAAATTAATAAAA [CACACA_site3639] | 8.59 ± 0.45
TCATTATTATTCCTCACACATATATATATATATATT [CACACA_site4375] | 8.94 ± 0.33
AGCACACCCACAAAAACACACACAAAGGTGTTCTTA [CACACA_site8355] | 8.45 ± 0.58
GCATGTATAATGGTAGTGCATATAATAATATAATAA [GTGCAC_site9548] | 8.79 ± 0.21
ATTGTTATTTATTGTGTGCGCATTAATACATACATA [GTGCAC_site9982] | 8.86 ± 0.2
TAATGTTGAGAATTTTGTACATATAGATCAATTTAT [XGTACX_site5426] | 8.31 ± 0.38
ATTTATTATGAACATACACACAAAAAAAAAAAGTAT [CACACA_site2054] | 8.82 ± 0.54
TAACTTTGAAAAGATGGTACACAATAATATATATAT [XGTACX_site8667] | 9.47 ± 0.25
GTATATTTTAATATGACACACATATTATATATATAT [CACACA_site2483] | 9.64 ± 0.17
TGACATAAAAAATATACACACTATAATATATATACT [CACACA_site4898] | 8.4 ± 0.41
AATCAATTAATATTAGCATAAAATTTTATTATTTTG [XGTACX_negctrl_site479] | 8.43 ± 0.36
ATAATATGTATGGTCACACAGACAAGGAAAGAATAA [CACACA_site5164] | 9.1 ± 0.47
TGTATCCATATTTGTTCACACACACCCATATTTATA [CACACA_site9190] | 9.04 ± 0.49
AAAAAAAAAAATAAAGAAATCAAAATTGATGAATAA [GTGCAC_negctrl_site692] | 8.34 ± 0.4
ATATGAACAAAATAAATCTCTTCAAAAATAATGTTC [GTGCAC_negctrl_site2] | 8.25 ± 0.49
TAAATGATTGCATAATGTACATATAATTTTTTTTTT [XGTACX_site1988] | 8.3 ± 0.4
TATATATATTTATGCTGTACCAAATAAGAATAGAAA [XGTACX_site7731] | 8.54 ± 0.39
